Assay results as given in PMC6919601, “Identification of Plasmodium dipeptidyl aminopeptidase allosteric inhibitors by high throughput screening” (PLoS ONE, 2019).
Out of some 110,000 compounds screened, about 230 (0.21%) showed an effect of 50% or more. Some of the results follow.

Target: DPAP1 (Plasmodium falciparum, UniProt Q8IIJ9)
Assay: primary screen, percent inhibition; read by cleavage of a fluorogenic dipeptide substrate; higher = more effect of the substance
Parameters: species or system P. falciparum D10 trophozoite lysates; single well
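Note: 30 min substrate incubation versus DMSO and 10 µM JCP410 controls.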

Chain of DPAP1 (Q8IIJ9 whole entry, looked up): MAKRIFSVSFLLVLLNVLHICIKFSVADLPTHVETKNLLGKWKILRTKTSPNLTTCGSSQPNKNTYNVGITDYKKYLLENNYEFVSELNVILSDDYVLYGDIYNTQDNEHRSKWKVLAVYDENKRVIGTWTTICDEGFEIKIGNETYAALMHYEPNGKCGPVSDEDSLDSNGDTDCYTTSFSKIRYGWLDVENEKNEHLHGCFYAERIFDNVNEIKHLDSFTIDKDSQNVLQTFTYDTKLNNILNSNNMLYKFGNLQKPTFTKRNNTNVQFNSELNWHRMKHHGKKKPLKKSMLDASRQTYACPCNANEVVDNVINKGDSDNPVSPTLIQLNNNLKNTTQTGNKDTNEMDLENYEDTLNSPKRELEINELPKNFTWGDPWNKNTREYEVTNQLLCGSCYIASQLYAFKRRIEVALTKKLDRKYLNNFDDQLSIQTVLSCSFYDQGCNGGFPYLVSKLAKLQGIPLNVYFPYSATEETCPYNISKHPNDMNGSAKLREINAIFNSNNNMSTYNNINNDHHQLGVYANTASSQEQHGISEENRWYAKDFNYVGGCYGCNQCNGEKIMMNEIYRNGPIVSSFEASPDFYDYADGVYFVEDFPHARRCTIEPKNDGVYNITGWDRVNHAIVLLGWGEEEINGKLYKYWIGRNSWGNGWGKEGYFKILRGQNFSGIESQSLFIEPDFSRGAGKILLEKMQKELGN

SMILES	% Inhibition @ 10 uM [%]
Oc1c2c(nc3c(-c4ccc(Cl)cc4)cnn13)CCC2	-5.28
CC1CCN(C(=O)C2CCC(C)(C(=O)O)C2(C)C)CC1 (stereo not shown)	-0.553
O=C(NCCCN1CCCC1)c1ccc(CSCc2cccc(Cl)c2)o1	0.718
COc1cc(CN2CCN(Cc3ccc4c(c3)OCO4)CC2)cc(OC)c1	-12.3
COc1ccc(S(=O)(=O)N2CCN(Cc3ccccc3)CC2)c(Cl)c1Cl	-10.7
CCCn1c2ccccc2c2cnn(CC(=O)N3CCN(c4ccccn4)CC3)c(=O)c21	2.82
CCOc1ccc(C2CC(c3c(O)cc(C)oc3=O)=NCCS2)cc1 (stereo not shown)	-2.32
C=CCOc1ccc2c(C)cc(=O)oc2c1C(=O)c1ccccc1	0.27
O=C(Cn1cc(S(=O)(=O)Cc2c(F)cccc2Cl)c2ccccc21)N1CCCC1	-7.42
CCc1c(C)sc(NC(=O)c2cccc(F)c2)c1C(=O)OC	-2.27
CC(C)c1ccc(C(=O)N2CCN(C/C=C/c3ccccc3)CC2)cc1	-4.6
CC(=O)NCCc1ccc(S(=O)(=O)N(C)C2CCS(=O)(=O)C2)cc1 (stereo not shown)	-4.42
CCN1C(=O)N/C(=C/c2ccc(N(C)C)c(Br)c2)C1=O	4.22
COc1ccc(CNc2nc3ccccc3c3nc(CCn4c(C)nc5ccccc54)nn23)cc1	-2.64
CC1(C)CC(=O)c2cnc(NCc3ccc(F)cc3)nc2C1	1.74
Cc1c(C(=O)O)sc(-c2ccccc2)c1C(=O)O	6.79
CC1=C(C(=O)Nc2cccc(C)n2)C(c2ccc(N(C)C)cc2)C2=C(O)CC(C)(C)CC2=N1 (stereo not shown)	4.32
Cc1nn(C(=O)CCC(=O)NCCC2=CCCCC2)c2ccccc12	-1.11
CCN1CCN(Cc2ccsc2)CC1	1.63
CCOC(=O)C1=C(CN2CCN(C)CC2)NC(=O)NC1c1ccc(C)cc1 (stereo not shown)	-2.92
O=C(NCCSCc1c(Cl)cccc1Cl)c1ccco1	-0.99
COc1ccc(C(=O)N(CCCN(C)C)c2nc3c(F)cc(F)cc3s2)cc1OC	0.49
CC(C)c1ccc(C2=CC(c3ccc(Cl)cc3)n3nnnc3N2)cc1 (stereo not shown)	0.219
CCN(CC)c1ccc(NC(=O)c2csc3ccccc23)cc1	3.8
Clc1cccc(-c2nn[nH]n2)c1	3.5

SMILES	% Inhibition @ 10 uM [%]
CC(C)C(=O)Nc1ccc(S(=O)(=O)Nc2nccs2)cc1	0.658
CS(=O)(=O)CCC(C(=O)N1CCCCCC1)N1Cc2ccccc2C1=O (stereo not shown)	-3.56
CCN1CCN(C(=O)c2ccc(Br)cc2)CC1	-2.78
O=C(CSc1nnc(CNC(=O)c2ccco2)o1)NCc1ccc(F)cc1	-1.58
Cc1cc(NC(=O)C2c3ccccc3Oc3ccccc32)c2ccccc2n1	-6.62
Cc1cc(O)c(C2=NCCSC(c3cc([N+](=O)[O-])ccc3O)C2)c(=O)o1 (stereo not shown)	17.5
CCc1ccc(S(=O)(=O)N2CCN(c3cccc(Cl)c3)CC2)cc1	-3.71
O=C1CC(c2ccccc2)CN1C(=O)c1ccccc1Cl (stereo not shown)	-3.97
C=CCSc1nc(O)c2c(n1)NC(=O)CC2c1ccc(OCC)c(OC)c1 (stereo not shown)	-2.88
CCC1=C(c2ccc(C)cc2)S(=O)(=O)N=C1N1CCC(C(=O)NC2CCCc3ccccc32)CC1 (stereo not shown)	-1.75
CCN1CCN(C(=O)COc2ccc3c(c2)C(=O)CC2(CCN(C(C)=O)CC2)O3)CC1	0.0654
CN1CCN(C(=O)c2c(NC(=O)c3ccccc3)sc3c2CCC(C(C)(C)C)C3)CC1 (stereo not shown)	0.343
CCCCN(CC)CCNC(=O)C1CCN(c2nnc(C)c3c(C)n(-c4ccccc4)nc23)CC1	5.62
Cc1cc(C)cc(OCCNC(=O)CCCCCN2C(=O)c3ccccc3C2=O)c1	-2.87
CC1=C(C#N)C(=O)N(Cc2ccccc2)C(=O)/C1=C\NC(=O)NC12CC3CC(CC(C3)C1)C2	0.674
COc1cccc(Cn2nnc(C(=O)NCc3ccccc3Cl)c2N)c1	-2.25
O=C(Nc1ccc(Cc2ccncc2)cc1)C(F)(F)F	-1.98
CC1CN(C(=O)c2ccccc2)OC(c2ccc3c(c2)OCO3)O1 (stereo not shown)	3.05
CCOC(=O)c1c(N)sc2c1CCC/C2=N/O	3.82
CCc1ccc2ncc(S(=O)(=O)c3ccc(F)cc3)c(O)c2c1	3.2
C[C@@H]1[C@@H](OC(=O)NCCc2ccccc2)C[C@H]2C[C@@H]1C2(C)C	8.06
Cc1cccc(-c2nc(CSCC(=O)N3CCc4ccccc4C3)c(C)o2)c1	0.689
CCOC(=O)N1CCN(C(=O)Cn2cnc3onc(-c4ccc(Cl)cc4)c3c2=O)CC1	-4.23
CC(=O)c1ccc(S(=O)(=O)N=C2C=C(C(C)(C)C)C(=O)C(C(C)(C)C)=C2)cc1	1.67
